This note sets out measurements from publication PMC12040169 (PLOS Biology, 2025).

The list shows a part of the results.

For this test, the system named is T1, C. trachomatis L2/434/Bu expressing GFP (CTL2-GFP).
T1 construct: L2/434/Bu GFP intracellular growth in HeLa cells
Also noted: species or system HeLa; C. trachomatis total inclusion area by high-content imaging, normalised to DMSO. The conditions noted are these: total inclusion area; 28.5 h, 10 µM; inhibitor. The method, boiled down: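 Following bulk GFP and resorufin fluorescence reads, infected cells were fixed, Hoechst-stained and imaged on a high-content platform. Inclusion total area and number per well served as growth proxies; nuclei counts indicated host viability. MICs were derived as for the fluorescence assay.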
Take `COc1ccccc1CN(CN1C(=O)c2ccccc2C1=O)CN1C(=O)c2ccccc2C1=O` [CBK265039]: the “% of control remaining” value turned out to be 104.538.
Then `C=CCOc1ccc(Cl)cc1CNc1cccc(C(=O)O)c1` [CBK078460], with 100.429; and `Cc1c(CN(C)C(=O)c2cccc(NC(=O)C3CCCO3)c2)cnn1C` (stereo not drawn) [CBK305416], with 40.2524; and `CSc1nsc(SCC(=O)c2ccc(NC(C)=O)cc2)n1` [CBK268755], with 106.307.
To `CC(C(=O)Nc1cccc(F)c1)N1CCN(Cc2cccnc2)CC1` (stereo not drawn) [CBK305408] belongs 36.675.
Then `COc1cc(CN2CCN(C(=O)c3cccc(Cl)c3)CC2)cc(OC)c1OC` [CBK074530], with 79.4695.
With `OCCCN1CCCN(c2ccnc(OCCN3CCOCC3)n2)CC1` [CBK083808], the “% of control remaining” value was 78.8713.
Then `CCCNC(C)C(=O)Nc1c(C)csc1C(=O)O` (stereo not drawn) [CBK287064], with 103.395.
Then `Cn1c(=O)c2c(nc(SCC(=O)O)n2C)n(C)c1=O` [CBK262942], with 103.555.
Then `CC(C)NC(=O)N1CCN2C(=O)N(c3ccccc3)C(=O)[C@@H]2C1` [CBK289579], with 110.31.
On to `COc1cccc2sc(Nc3nc(-c4cccs4)cs3)nc12` [CBK287469], for which the “% of control remaining” value is on record as 69.2392.
To `CCN(CCO)c1ccc(Nc2nc(-c3ccc(F)c(Cl)c3)cn3ccnc23)cc1` [CBK038042] belongs 118.995; to `O=C(CN(c1ccc(I)cc1)S(=O)(=O)c1ccccc1)NCC1CCCO1` (stereo not drawn) [CBK266278], 125.598; to `O=C(c1ncoc1-c1ccc(F)cc1)N1CCSCC1` [CBK282380], 81.9092.
To `O=C1N=C(NC23CC4CC(CC(C4)C2)C3)OC1c1ccccc1` (stereo not drawn) [CBK105263] belongs 58.3113; to `COc1cc(S(=O)(=O)NC2CC(C)(C)NC(C)(C)C2)ccc1Br` [CBK267908], 95.1483; to `OC[C@H]1O[C@@H](n2cnc3c(Cl)ncnc32)C[C@H]1O` [CBK201167], 102.391.
Then `O=C(O)CSCC(=O)N1CCN(c2ccc(F)cc2)CC1` [CBK057269], with 100.198; and `CC(O)CN(Cc1ccc(-c2ccccc2)cc1)Cc1ccc2c(c1)OCO2` (stereo not drawn) [CBK286450], with 102.069; and `CCCC(=O)c1ccc(S(=O)(=O)N2CCCN(Cc3cc(Br)cs3)CC2)cc1` [CBK062896], with 69.5135.
For `O=S(=O)(Nc1cc(OC2CCCNC2)c2occc2c1)c1cc(F)ccc1F` (stereo not drawn) [CBK073996C], the “% of control remaining” value was 43.035.
To `CCCCCNC(=O)NCCC1=CCCCC1` [CBK043796] belongs 97.8242; to `O=C(O)[C@H]1CN(C(=O)c2ccco2)C[C@@H]1c1ccccc1F` [CBK283820], 89.8993.
Then `CC(Cn1cc(Cl)cn1)C(=O)NC(C)C1CC2CCC1C2` (stereo not drawn) [CBK281650], with 77.2622; and `COc1ccccc1-c1cnc(N)c(N[C@H](C)c2ccccc2)n1` [CBK063705], with 138.136; and `O=C(c1cc(O)nc2ccccc12)N1CCN(S(=O)(=O)N2CCCC2)CC1` [CBK297898], with 89.9942.
In the case of `COc1ccc(CN(/N=N/c2nonc2C)c2nonc2C)cc1[N+](=O)[O-]` [CBK262386], the “% of control remaining” value is reported as 100.662.
Consider `CCCCC(=O)NCCc1ccc(S(N)(=O)=O)cc1` [CBK288360], for which the “% of control remaining” value was found to be 65.1676.
Then `Cc1cc(C(=O)C(C)Oc2ccc(-c3nnco3)cc2)c(C)n1-c1ccccc1` (stereo not drawn) [CBK297104], with 29.9615; and `Cn1cc(CNS(=O)(=O)c2ccc(Br)c(F)c2)cn1` [CBK305539], with 77.2998; and `O=C(c1ccc(-c2cnc3[nH]c(=O)n(C4CCCCC4)c3n2)cc1)N1CCOCC1` [CBK064566], with 135.334.
Then `CN(CCCc1cnn(C)c1)c1nc(N)nc2c1CCCC2` [CBK306766], with 65.9901; and `CCOc1ccc(S(=O)(=O)N2CCN(Cc3cc(C(=O)OC)n(C)c3)CC2)c2cccnc12` [CBK062796], with 73.7162; and `Cc1nn(Cc2ccc(Cl)cc2)c(C)c1C(N)C(=O)O` (stereo not drawn) [CBK286661], with 73.9007.
In the case of `O=C(NC1CC1)C1CCN(Cn2nnc3ccccc3c2=S)CC1` [CBK306342], the “% of control remaining” value amounted to 68.2152.
`CSCCC(=O)NCc1c(-c2ccccc2)noc1C` [CBK144092]: the “% of control remaining” value amounted to 86.4731.
To `CCOC(=O)NC(=O)c1cn(N2CCOCC2)c(=O)[nH]c1=O` [CBK004845] belongs 64.4819; to `CC(C(=O)Nc1ccc(S(N)(=O)=O)cc1)N1CCCc2ccccc21` (stereo not drawn) [CBK306108], 60.7893; to `Cc1ccccc1-c1nnc(SC(C)C)n1CCNCCO` [CBK200084T], 133.975.
Then `Cc1cc(N2CCCC(N(C)S(=O)(=O)c3cccc(F)c3)CC2)nc(C)n1` (stereo not drawn) [CBK285935], with 96.4892; and `O=S(=O)(N1CCCCCC1)N1CCN(S(=O)(=O)N2CCOCC2)CC1` [CBK269152], with 117.324; and `CC(C)(C)NC(=O)Cn1c(=O)n(Cc2cccs2)c2ncccc21` [CBK283844], with 58.933.
To `Cc1nc(=O)c(-c2ccccc2)c(C)n1-c1cccc(C(=O)O)c1` [CBK286965] belongs 43.3667; to `COc1ccccc1NC(=O)c1c(NC(=O)c2cccs2)sc2c1CCC(C(C)(C)C)C2` (stereo not drawn) [CBK264123], 114.192; to `Cc1nn(CCC#N)c(C)c1[C@@H]1C=C[C@@H](NS(=O)(=O)c2ccccc2)C1` [CBK288805], 102.353.
As for `COc1cccc(C(=O)/C=C\Nc2ccc(S(=O)(=O)Nc3onc(C)c3C)cc2)c1` [CBK264206], the “% of control remaining” value amounted to 30.014.
To `COc1ccc(C(=O)Nc2ccc(C(C)=O)cc2)cc1[N+](=O)[O-]` [CBK262457] belongs 95.1626; to `CC(=O)Nc1cccc(NC(=O)N(CCC#N)C2CCCCC2)c1` [CBK156367], 94.1776.
Then `Cc1ccccc1C1(O)CCN(C(=O)C(c2cccs2)c2cccs2)CC1` [CBK286483], with 123.369; and `O=C(NCCc1c[nH]c2ccccc12)NC(=O)C1CCNCC1` [CBK051094], with 99.0777.
To `O=C(O)c1cccc(NC(=O)c2ccc(S(=O)(=O)N3CCCCC3)cc2)c1` [CBK265185] belongs 94.1933.
